Here are results for 40 sequences from the supplement of paper PMC10338343.

± gives the standard deviation. Only a part is listed here, and it is no random draw.

The test system of the assay is MIWI (PIWIL1) piRISC loaded with piRNA #1 (30 nt). As to the kind of experiment: pre-steady-state target cleavage rate (min^-1); MIWI and MILI are mouse PIWI proteins and EfPiwi is from a freshwater sponge; tags in brackets are library labels; higher = faster piRNA-guided slicing of the target. Particulars: guide: piRNA #1 5'p-UGAGGUAGUAGGUUGUAUAGUAUCCAGAGG; auxiliary factor: 500 nM mouse GTSF1. In a few lines:
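Using HEPES–potassium acetate buffer at 33 °C, 1 nM active affinity-purified piRISC with a single synthetic guide was mixed with 0.1 nM transcribed, DNA-blocked target RNA library for 0–8 or 0–960 min, with or without 500 nM GTSF1 partner protein. Uncleaved targets were sequenced and normalised to depth and to weakly complementary targets, and three trials were pooled with k3 capped at 0.0001 min^-1. A burst-and-steady-state fit gave the pre-steady-state cleavage rate.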
As for CCUCUGGAUAGAUUACAACCUACUACCUCA, the “pre-steady-state target cleavage rate” value came out at 0.803 ± 0.063.
Next, GGAGACCUAACUUUACAAGCUACUACCUCA: 0.119 ± 0.024.
Next, GGAGUGGAUACUAAACAACCUACUACCUCA: 1.51 ± 0.092; GGAGAGGAUACUAUACAACCAACAACCUCA: 0.045 ± 0.0063.
As for GGUCUGGAUACUAUACAUGGUACUACCUCA, the “pre-steady-state target cleavage rate” value turned out to be 0.0214 ± 0.0031.
As to GGAGACCAUACUAUACAACCUUCUAGCUCA, the “pre-steady-state target cleavage rate” value stood at 0.167 ± 0.027.
Next, GGAGACCUUACAAUAGAACCUACUACCUCA: 0.167 ± 0.022; CCUCUGGAUACUAUUCAACCUACUACCACA: 2.19 ± 0.18; GGAGACCUUACUAUACAACGUACUUCCUCA: 0.144 ± 0.026.
As for CCUCUGGUUACUAUACAACCUACUUCCUCA, the “pre-steady-state target cleavage rate” value stood at 0.536 ± 0.035.
Next, GGACUGGAUACUAUACAACCUACUACAUCA: 0.33 ± 0.042.
For the sequence GGACUGGAUACUAGACAACCUACUACCUCA, the “pre-steady-state target cleavage rate” value amounted to 1.69 ± 0.12.
On to GGAGACCUAACUAUACAACGUAGUACCUCA, for which the “pre-steady-state target cleavage rate” value is 0.015 ± 0.0033.
With GGUCUGGAUAAUAUACAACCUACUACCUCA, the “pre-steady-state target cleavage rate” value was 1.88 ± 0.12.
As to GGAGUGGAUACUGUACAACCUACUACCUCA, the “pre-steady-state target cleavage rate” value worked out at 1.48 ± 0.095.
Take GGACUGGUUACUAUACAACCUACUACCUGA: the “pre-steady-state target cleavage rate” value was 0.381 ± 0.082.
For GCUCUGGAAACUAUACAAGCUACUACCUCA, the “pre-steady-state target cleavage rate” value was found to be 1.4 ± 0.074.
With GCUCUGGAUACUAUGACAACCUACUACCUCA, the “pre-steady-state target cleavage rate” value came out at 1.6 ± 0.092.
Consider GCUCUGGAAACUAUACAACCAACUACCUCA, for which the “pre-steady-state target cleavage rate” value was determined as 0.171 ± 0.022.
As to GCUCAGGAUACUAUACAACCUACAACCUCA, the “pre-steady-state target cleavage rate” value turned out to be 0.866 ± 0.076.
With GGUCUGGAUACUAUACAACCUACUACCUA, the “pre-steady-state target cleavage rate” value worked out at 0.685 ± 0.11.
For GGAGACGAUACUAAUACAACCUACUACCUCA the value was 1.37 ± 0.095.
With GGAGACCUUACUAUACAACCUACUACAUCA, the “pre-steady-state target cleavage rate” value was 1.48 ± 0.084.
GGUCUGGAAACUAUACAACCUACUUCCUCA: the “pre-steady-state target cleavage rate” value was 0.00438 ± 0.0025.
Consider GGAGACGACACUAUACAACCUACUACCUCA, for which the “pre-steady-state target cleavage rate” value was 1.72 ± 0.1.
In the case of GGAGACCUAUGUAUACAACCUACUACGCUCA, the “pre-steady-state target cleavage rate” value was 0.175 ± 0.023.
Turning to “CCUCUGGAUACUAUACAACCUACAUGGAGA [g8:g30:cont:t1A]”, the “pre-steady-state target cleavage rate” value stood at 0.0372 ± 0.012.
On to GGAGACGUUACUAUACAACCUACUUCCUCA, for which the “pre-steady-state target cleavage rate” value worked out at 0.212 ± 0.036.
Consider CCUCUGCAUACUUUACAACCUACUACCUCA, for which the “pre-steady-state target cleavage rate” value worked out at 2.13 ± 0.15.
For the sequence CCUCUGGAUACUAUACAACCUACUACCGCA, the “pre-steady-state target cleavage rate” value was 1.68 ± 0.11.
Consider GCUCUGGAUACUAAACAACCUACUAGCUCA, for which the “pre-steady-state target cleavage rate” value turned out to be 1.08 ± 0.1.
With GGAGACCUAAGUAUACAACGUACUACCUCA, the “pre-steady-state target cleavage rate” value amounted to 0.00765 ± 0.0024.
Take GGAGACGAUAGUUUACAACCUACUACCUCA: the “pre-steady-state target cleavage rate” value came out at 0.565 ± 0.075.
As to GGAGACCUAACUAUUCAACCUACUACCACA, the “pre-steady-state target cleavage rate” value came to 0.245 ± 0.032.
Take CCUCUGGAUACUAUACAACCAACUACCUGA: the “pre-steady-state target cleavage rate” value was 0.0876 ± 0.014.
In the case of CCACUGGAUACUAUACAACCUACUACCUGA, the “pre-steady-state target cleavage rate” value worked out at 0.806 ± 0.081.
Regarding CCUCUGGUUACUAUACAAGCUACUACCUCA, the “pre-steady-state target cleavage rate” value was 0.776 ± 0.028.
In the case of GGAGACCUAUCCAUACAACCUACUACCUCA, the “pre-steady-state target cleavage rate” value came out at 0.251 ± 0.048.
In the case of GGAGAGGAUACUAUACAACCUACUACUCA, the “pre-steady-state target cleavage rate” value was determined as 0.537 ± 0.047.
GGAGACCUAACAUUACAACCUACUACCUCA: the “pre-steady-state target cleavage rate” value was determined as 0.00846 ± 0.0049.
